Reference: PubChem BioAssay AID1030 (National Center for Advancing Translational Sciences (NCATS), 2008)
Hit rate of the full screen: of about 220,000 compounds, about 16,000 (7.3%) were called active. This list was built around the results that the source calls inconclusive (neither active nor inactive); the mix of calls is not that of the screen. Calls come from the whole dose curve; as a rule, active = well fitted inhibition curve with a large enough effect (not every such curve was filed as active); inconclusive = small, poorly fitted or top-dose-only effect, or another doubt; inactive = no such curve, though single readings can be large or run the other way. No potency is given beside an inconclusive call; the fits are too rough.

Molecular target: Aldehyde dehydrogenase 1A1 (Homo sapiens) (UniProt P00352)
Sequence of UniProt P00352 (P00352 whole entry, looked up): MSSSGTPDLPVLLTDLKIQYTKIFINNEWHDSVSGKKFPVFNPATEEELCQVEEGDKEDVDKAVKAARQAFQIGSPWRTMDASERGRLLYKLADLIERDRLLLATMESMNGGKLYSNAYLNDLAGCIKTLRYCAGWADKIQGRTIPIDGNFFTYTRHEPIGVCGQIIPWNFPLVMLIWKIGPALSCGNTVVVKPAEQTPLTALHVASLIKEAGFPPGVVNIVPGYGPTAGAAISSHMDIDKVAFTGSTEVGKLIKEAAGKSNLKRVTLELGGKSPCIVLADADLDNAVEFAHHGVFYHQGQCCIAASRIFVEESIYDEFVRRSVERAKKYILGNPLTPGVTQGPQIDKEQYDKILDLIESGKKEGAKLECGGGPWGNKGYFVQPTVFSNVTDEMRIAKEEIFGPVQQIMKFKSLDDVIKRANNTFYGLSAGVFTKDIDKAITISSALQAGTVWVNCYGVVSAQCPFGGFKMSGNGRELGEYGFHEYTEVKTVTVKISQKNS
Test: qHTS Assay for Inhibitors of Aldehyde Dehydrogenase 1 (ALDH1A1);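 for activity, negative = inhibition: plate controls were no enzyme wells and a reference inhibitor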
Conditions: Purified ALDH1A1, NADH fluorescence, propionaldehyde substrate; series mostly up to 75.3 µM
Potency is the fitted concentration of half-maximal effect; tags give direction and shape of the fitted curve.

| Compound | Potency | activity, negative = inhibition |
| --- | --- | --- |
| Cc1ccc(S(=O)(=O)NN2C(=O)c3ccccc3NC2c2cccc(O)c2)cc1 (configuration not stated) | inconclusive [inhibitor, partial curve] |  |
| COc1ccc(-n2ncc3c(NCCN4CCOCC4)ncnc32)cc1 | inconclusive [inhibitor, partial curve] |  |
| Cn1c(=O)c2c(nc(N/N=C/c3cccs3)n2Cc2ccc(Br)cc2)n(C)c1=O | inactive |  |
| COc1cccc2c(=O)c3c(cnn3C)n(C)c12 | inconclusive [inhibitor, partial curve] |  |
| S=C1NC(c2ccccc2)N2C(=S)NC(c3ccccc3)N12 (configuration not stated) | active: 12.6 µM |  |
| CCn1c(-c2cc3ccccc3cc2O)n[nH]c1=S | inconclusive [inhibitor, single point] |  |
| COc1ccc2nc(SCC(=O)Nc3c(C)cccc3C)[nH]c2c1 | inconclusive [inhibitor, partial curve, poor fit] |  |
| COc1ccc(C(=O)NC(=S)NCc2cccnc2)cc1Br | inconclusive [inhibitor, partial curve] |  |
| O=C(C1CCC(CNc2c(N3CCOCC3)c(=O)c2=O)CC1)N1CCN(c2ccccc2)CC1 (configuration not stated) | inactive |  |
| CSc1nsc(/C=C/Nc2cccc(Cl)c2)c1C#N | active: 11.2 µM |  |
| CCc1cc2c(SCC(=O)NC(=O)c3cccn3C)ncnc2s1 | inactive |  |
| Cc1cc(NS(=O)(=O)c2ccc(NC(=O)CSc3nc4sc(C(=O)O)c(C)c4c(=O)[nH]3)cc2)no1 | inactive |  |
| O=C1CCCN1CCC1CCN(C2CC(=O)N(c3ccc(F)cc3)C2=O)CC1 (configuration not stated) | active: 12.6 µM |  |
| COc1ccc(OC)c(C2C=C(c3ccc(C)c(C)c3)Nc3nnnn32)c1 (configuration not stated) | active: 20 µM |  |
| O=C1CCCc2c1nc(-c1ccc([N+](=O)[O-])cc1)n2O | inconclusive [inhibitor, single point] |  |
| Cc1cc2cc(CN(Cc3ccco3)C(=O)C3CCCCC3)c(=O)[nH]c2cc1C | inconclusive [inhibitor, full curve, poor fit] |  |
| CN(C)CCN1C(=O)C(O)=C(C(=O)c2ccco2)C1c1ccccc1F (configuration not stated) | inactive |  |
| COC(=O)[C@@]1(Cc2ccc(F)cc2)[C@H]2c3cc(C(=O)N(C)C)n(Cc4ccc(S(C)(=O)=O)cc4)c3C[C@H]2CN1C(=O)c1ccccc1 | inconclusive [inhibitor, single point] |  |
| O=C(N1CCN(Cc2ccccc2)CC1)C(Cl)(Cl)Cl | inconclusive [inhibitor, single point] |  |
| Cc1ccc(C)c(C(=O)O/N=C(\N)c2ccc(Br)cc2)c1 | inactive |  |
| CC(C)(C)c1ccc(C(=O)NNc2cc(N3CCOCC3)nc(N3CCOCC3)n2)cc1 | inactive |  |
| CC1(C)CC(=O)C(C=NCCN2CCN(C(=O)c3ccc(F)cc3)CC2)=C(O)C1 | inconclusive [inhibitor, single point] |  |
| CSc1nnc2c3c4c(sc3c(=O)n(-c3ccccc3)n12)CC(C)(C)OC4 | inconclusive [inhibitor, single point] |  |
| Cc1nc2sc(C(c3ccccc3)N3CCN(c4ccccc4F)CC3)c(O)n2n1 (configuration not stated) | inactive |  |

| Compound | Potency | activity, negative = inhibition |
| --- | --- | --- |
| C=CCN1c2ccccc2[C@]23C[C@@H](C(=O)OC)N(S(=O)(=O)c4ccc([N+](=O)[O-])cc4)C2=NC(C(=O)OC)=C(C(=O)OC)[C@H]13 |  | inactive: -3.11% [at 13.5 µM] |
| C=CCNC(=S)NS(=O)(=O)c1cccs1 | active: 17.8 µM |  |
| CCOC(=O)CCc1c(C)c(C#N)c2[nH]c3ccccc3n2c1=O | inconclusive [inhibitor, partial curve] |  |
| O=c1[nH]n(-c2ccc(Cl)cc2)c2ncccc12 | inactive |  |
| CN(C)/C=C\C(=C/C(=O)C(F)(F)F)Nc1ccccc1Oc1ccccc1 | inactive |  |
| Cc1ccc(C(=O)NC2CCN(S(=O)(=O)c3ccccc3)CC2)cc1 | inconclusive [inhibitor, single point] |  |
| O=C(c1cccc(F)c1)N1CCN(c2ccc([N+](=O)[O-])c(N3CCCCC3)c2)CC1 | active: 8.91 µM |  |
| CC1CCCN(c2nc3c(c(=O)[nH]c(=O)n3C)n2CCCc2ccccc2)C1 (configuration not stated) | inconclusive [inhibitor, partial curve] |  |
| COc1ccc(-c2cn3cccnc3n2)cc1NC(=O)c1cc(OC)c(OC)c(OC)c1 | inconclusive [inhibitor, partial curve] |  |
| CCOC(=O)C1=C(C)NC(C)=C(C(=O)OCC)C1C(=O)OCC(=O)NC(C)C | inconclusive [inhibitor, single point] |  |
| O=C(Nc1sc2c(c1C(=O)O)CCC2)c1ccco1 | inactive |  |
| O=c1c2ccccc2c(C=NC2CCS(=O)(=O)C2)c(O)n1-c1ccccc1 (configuration not stated) | active: 17.8 µM |  |
| CCC(=O)Oc1ccc(C(=O)Nc2ccc3c(c2)OCO3)cc1 | inconclusive [inhibitor, partial curve] |  |
| CC(=O)N1CCc2cc(S(=O)(=O)CCC(=O)N3CCN(c4ccccn4)CC3)ccc21 | inconclusive [inhibitor, single point] |  |
| CCOC(=O)Nc1ccc(OC)cc1S(=O)(=O)N1CCCCC1 | inconclusive [inhibitor, single point] |  |
| CCOC(=O)c1c(-c2ccc(C)o2)csc1NC(=S)NC(=O)N(C)C | inconclusive [inhibitor, single point] |  |
| COc1ccc2cc(CCNC(=O)c3ccc4c(c3)OCO4)c(=O)[nH]c2c1 | inconclusive [inhibitor, single point] |  |
| COc1ccc(OC)c2[nH]c(=O)c(CCNC(=O)c3ccc(S(=O)(=O)N4CCCC4)cc3)cc12 | inconclusive [inhibitor, single point] |  |
| CCCCCCCN | inactive |  |
| COc1cccc(C(=O)NCC(=O)OCC(=O)Nc2cc(OC)c([N+](=O)[O-])cc2C)c1 | inactive |  |
| C/C(CC(O)c1ccc2ccccc2n1)=N/O (configuration not stated) | inactive |  |
| O=C1CC(N2CCC(O)(c3ccc(Cl)cc3)CC2)C(=O)N1Cc1ccc(N2CCCC2=O)cc1 (configuration not stated) | inconclusive [inhibitor, single point] |  |
| COc1cccc(/C=C2\N=C(C3CCCCC3)OC2=O)c1OC | inconclusive [inhibitor, single point] |  |
| COc1ccccc1-c1cc(C(F)(F)F)nc(N2CCCCC2)n1 | inconclusive [inhibitor, single point] |  |

| Compound | Potency | activity, negative = inhibition |
| --- | --- | --- |
| Cn1c(=O)c2cn(Cc3ccc(Cl)cc3)cc2n(C)c1=O | inactive |  |
| CC(C)C[C@H](NC(=O)NCc1ccc(Cl)cc1)C(=O)O | inconclusive [inhibitor, single point] |  |
| CSC(=S)N/N=C(\C)c1ccc(Br)cc1 | inactive |  |
| CCCn1c(CCC(=O)O)ccc1-c1cccs1 | inconclusive [inhibitor, partial curve] |  |
| Cc1c(C(=O)Nc2ccccc2N2CCOCC2)sc2nc3n(c(=O)c12)CCC3 | inactive |  |
| Cc1cc(C)cc(NS(=O)(=O)c2ccc(NC(=S)Nc3ccccc3)cc2)c1 | inactive |  |
| CCOC(=O)c1ccc(NC(=O)CCc2ccc(CC)o2)cc1 | inconclusive [inhibitor, single point] |  |
| Cc1nc(-c2ccc(C(=O)NCCO)cc2)cs1 | inconclusive [inhibitor, single point] |  |
| COCC(=O)N(C)c1nnc(-c2cnc(C)cn2)s1 | inconclusive [inhibitor, single point] |  |
| Fc1ccccc1CN1CCCN(C(=S)Nc2cccc(Cl)c2)C1 | inconclusive [inhibitor, single point] |  |
| O=C(c1ccc(CS(=O)(=O)c2ccccc2)o1)N1CCOCC1 | inconclusive [inhibitor, single point] |  |
| CCOC(=O)CSc1nc2c(c(=O)[nH]c(=O)n2C)n1C/C=C(/C)Cl | active: 17.8 µM |  |
| S=C(NCc1ccccc1)NC1CCCc2ccccc21 (configuration not stated) | inconclusive [inhibitor, partial curve] |  |
| N/C(=N\OC(=O)c1ccco1)c1ccccc1 | inactive |  |
| C/C(=N\N=c1/scc(C)n1Cc1ccco1)c1cccc([N+](=O)[O-])c1 | inactive |  |
| CC1OC23CCCCC2C(C#N)(C(=N)O3)C1(C#N)C#N (configuration not stated) | inconclusive [inhibitor, partial curve] |  |
| COC(=O)c1cccc(NC(=S)N2CCCCC2)c1 | inactive |  |
| COCCN(C(=O)c1ccco1)c1nnc(-c2ccc(F)cc2)s1 | inconclusive [inhibitor, single point] |  |
| CC1(OC(=O)CCc2ccccc2)C(=O)C=C2C=C(c3ccc(C#N)cc3)N(C(CO)CO)C=C2C1=O (configuration not stated) |  | inactive: 5.58% [at 13.5 µM] |
| CC(C)CNC(=O)CC(=O)N/N=C/c1ccc(Br)cc1 | active: 0.891 µM |  |
| CCC(=O)N1CCCc2cc(S(=O)(=O)NCc3cccs3)ccc21 | inconclusive [inhibitor, single point] |  |
| COCCCn1c(=N)c(C(=O)NCC2CCCO2)cc2c(=O)n3cccc(C)c3nc21 (configuration not stated) | inconclusive [inhibitor, partial curve] |  |
| Cc1c(-c2ccco2)[n+](=O)c2c(n1[O-])CCC2 | inconclusive [inhibitor, single point] |  |
| CC1=C(C#N)C(=O)NC(=O)/C1=C/c1ccc(-c2ccc(S(N)(=O)=O)cc2)o1 | inconclusive [inhibitor, single point] |  |
